Results from the supplement of paper PMC7335073.
In all, about 4,100 sequences were measured (“relative CpG methylation activity (normalised to average over all NNNCGNNN flanks)”: median about 0.87, highest 2% from about 2.4 on). The list shows a part of the results.

molecular target: DNMT3A catalytic domain (mouse) (UniProt O88508); test: relative CpG methylation activity (normalised to average over all NNNCGNNN flanks) (relative (1 = mean)); higher = more methylation of the central CpG; settings: system: in vitro, murine catalytic domain; CpG state: hemimethylated substrate pool; residues: 608-908
Procedure: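 Deep enzymology: a pool of dsDNA substrates with a central CpG flanked by 10 random nucleotides on each side was methylated by the murine DNMT3A or DNMT3B catalytic domain (0.8 mM SAM, 37 °C, 60 min). Methylation was then read out by hairpin ligation, bisulfite conversion and NGS. Values are the average methylation of each NNNCGNNN context (±3 flanks; the outer flanks are random and averaged over), normalised to the overall mean, so 1 = average activity.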

Sequence | relative CpG methylation activity
CGCCGCAG | 0.38
CCGCGGGT | 1.11
TTCCGATT | 1.53
AAACGGCT | 0.837
GCACGCAA | 1.49
CTACGCTT | 2.38
CTGCGTCC | 2.14
ATGCGAGA | 1.24
CACCGTGG | 0.145
GCGCGGTC | 0.979
GGGCGCCT | 1.57
CGGCGGGC | 0.606
ACTCGGTT | 0.391
TCACGACG | 1.37
ACTCGGGA | 0.476
TACCGCGT | 0.602
TCACGCAG | 0.929
GAGCGTGA | 0.466
TGACGTTT | 0.561
ATGCGTGC | 1.08
TACCGGGC | 0.455
TCGCGTTT | 0.46

Sequence | relative CpG methylation activity
AGGCGAAA | 0.861
TAGCGATA | 0.467
GGTCGTAG | 0.145
GGGCGAAC | 1.22
CACCGGAC | 0.809
CGGCGACT | 0.787
ATACGACC | 2.41
ATTCGTGT | 0.417
AAGCGAAC | 1.02
CAACGTAC | 0.934
CTGCGGAA | 0.784
TTTCGCGC | 1.16
AGGCGGCT | 0.933
GTACGGCT | 1.97
GATCGGCC | 0.492
GTTCGTCC | 1.56
CCTCGTGA | 0.701
AACCGAAC | 1.62
CCTCGAAC | 1.4
AAGCGGAA | 0.607
GGTCGATG | 0.241
CAACGAAA | 0.685

Sequence | relative CpG methylation activity
AGCCGTGA | 0.258
TAGCGTTC | 0.524
ACACGGGA | 0.876
AACCGACA | 1.27
GCCCGGGA | 1.08
CCCCGCGC | 1.17
CACCGTTT | 0.474
AAGCGTCC | 1.22
CTACGTAC | 1.9
CGGCGCAT | 0.484
ATTCGTCT | 1.65
GTACGCAA | 1.89
TATCGGTC | 0.637
TCTCGATT | 1.15
GTACGGGG | 1.06
GTGCGGCT | 1.07
CTTCGCCA | 2.15
ACGCGTCC | 1.53
TCGCGTAT | 0.522
AGGCGCAT | 0.493
GTTCGCCC | 2.25
GTTCGGCG | 1.45

Sequence | relative CpG methylation activity
CAACGTTA | 0.594
CTACGACA | 2.18
TCGCGTTG | 0.608
TTTCGTCC | 1.65
AGGCGCGA | 0.508
CACCGACC | 1.1
AGTCGCGT | 0.385
TGCCGGCT | 0.855
TAGCGCGC | 0.503
CTACGTCT | 2.45
CGACGGAC | 0.879
GATCGTTT | 0.404
TTCCGCCT | 2.6
TCCCGACG | 1.06
GGACGAAG | 0.2
TCGCGCGT | 0.856
ATCCGTAC | 1.07
TGGCGCCT | 1.31
AGGCGGTC | 0.722
CCTCGCGA | 1.03
ATACGATC | 2.12
TTGCGAAA | 1.55

Sequence | relative CpG methylation activity
ATACGTAT | 1.35
GACCGGGC | 1.11
CCACGTAA | 1.59
TGCCGGGG | 0.238
AGACGAGA | 0.731
CCGCGTTT | 0.526
GTGCGGAT | 0.725
ATGCGTTG | 0.99
GGTCGCCT | 1.48
GCACGGGG | 0.633
CTTCGCGC | 1.34
CCACGCCG | 1.71
CAGCGATA | 0.439
TTACGTCG | 2.52
TTACGCGT | 1.81
TGGCGGGT | 0.455
CCTCGTTC | 1.08
TTTCGAAA | 1.06
AGCCGATG | 0.521
GTCCGCGC | 2.12
AGACGTGA | 0.553
